Experimental data taken from publication PMC11558142.
These are yes or no findings as the source states them, for the method shown. Binding seen in cells or lysates may run through a third protein. Some entries that bind do so weakly or less than the wild type. For part of these data: Where a sequence is shown, tags or fusion partners need not be part of it.

Amino acid sequences for entries named in this document (tags omitted). A change or cut given only in a name is not applied to a line headed by its entry. Chains listed by the source or under a name are the forms on record and can include a tag or linker. Residues count along the entry.
UniProt P84022: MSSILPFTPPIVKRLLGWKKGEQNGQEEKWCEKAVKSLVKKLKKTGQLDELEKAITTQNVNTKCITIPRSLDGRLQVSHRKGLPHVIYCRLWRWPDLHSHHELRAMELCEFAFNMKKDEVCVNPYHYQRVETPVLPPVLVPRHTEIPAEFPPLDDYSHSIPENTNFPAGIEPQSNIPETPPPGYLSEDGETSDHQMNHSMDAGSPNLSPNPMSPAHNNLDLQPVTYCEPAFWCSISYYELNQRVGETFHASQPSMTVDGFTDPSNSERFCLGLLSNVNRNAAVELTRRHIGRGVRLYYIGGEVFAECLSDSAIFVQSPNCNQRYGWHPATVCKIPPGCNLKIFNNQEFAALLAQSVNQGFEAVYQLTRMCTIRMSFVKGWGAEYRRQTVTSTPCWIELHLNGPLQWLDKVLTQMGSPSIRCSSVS
UniProt P05556: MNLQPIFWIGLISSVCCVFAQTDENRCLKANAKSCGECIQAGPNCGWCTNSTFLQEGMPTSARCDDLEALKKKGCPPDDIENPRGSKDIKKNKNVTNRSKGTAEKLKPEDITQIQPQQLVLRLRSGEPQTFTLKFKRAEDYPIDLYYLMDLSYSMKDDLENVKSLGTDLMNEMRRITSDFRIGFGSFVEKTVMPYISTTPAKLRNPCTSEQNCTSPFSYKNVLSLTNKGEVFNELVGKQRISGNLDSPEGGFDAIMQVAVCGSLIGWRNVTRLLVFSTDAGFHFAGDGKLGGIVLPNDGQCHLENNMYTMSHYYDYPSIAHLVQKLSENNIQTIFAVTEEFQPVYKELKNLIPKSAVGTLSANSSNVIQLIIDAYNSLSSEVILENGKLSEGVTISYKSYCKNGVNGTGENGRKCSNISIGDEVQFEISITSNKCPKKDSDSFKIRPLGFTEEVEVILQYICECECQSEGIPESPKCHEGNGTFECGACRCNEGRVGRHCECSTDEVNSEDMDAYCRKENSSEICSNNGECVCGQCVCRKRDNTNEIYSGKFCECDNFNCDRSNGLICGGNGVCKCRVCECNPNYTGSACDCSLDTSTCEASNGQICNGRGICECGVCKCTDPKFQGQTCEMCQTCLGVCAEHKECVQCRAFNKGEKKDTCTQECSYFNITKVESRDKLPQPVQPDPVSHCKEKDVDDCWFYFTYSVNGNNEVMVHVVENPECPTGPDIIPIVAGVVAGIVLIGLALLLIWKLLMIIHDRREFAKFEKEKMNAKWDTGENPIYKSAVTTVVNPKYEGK
ITGB1 mutant (ITGB1 M) with the deletion of amino acids 130–240 (P05556, form named): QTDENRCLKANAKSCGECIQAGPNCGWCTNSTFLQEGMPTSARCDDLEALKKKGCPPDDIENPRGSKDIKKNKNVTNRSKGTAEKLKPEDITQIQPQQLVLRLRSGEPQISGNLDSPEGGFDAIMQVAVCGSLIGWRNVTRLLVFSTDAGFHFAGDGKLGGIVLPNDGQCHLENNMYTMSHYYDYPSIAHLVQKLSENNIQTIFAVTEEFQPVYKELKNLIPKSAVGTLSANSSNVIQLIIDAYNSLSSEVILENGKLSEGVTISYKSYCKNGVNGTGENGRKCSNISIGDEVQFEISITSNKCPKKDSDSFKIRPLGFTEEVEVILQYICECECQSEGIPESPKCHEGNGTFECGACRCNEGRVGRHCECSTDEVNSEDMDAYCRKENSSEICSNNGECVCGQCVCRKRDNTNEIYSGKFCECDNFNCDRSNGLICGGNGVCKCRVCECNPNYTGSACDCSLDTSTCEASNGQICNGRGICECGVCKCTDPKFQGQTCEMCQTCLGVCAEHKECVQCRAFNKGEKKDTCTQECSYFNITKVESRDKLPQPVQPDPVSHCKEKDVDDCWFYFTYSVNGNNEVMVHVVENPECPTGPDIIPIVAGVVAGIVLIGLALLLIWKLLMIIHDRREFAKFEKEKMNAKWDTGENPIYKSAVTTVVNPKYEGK
UniProt P08648: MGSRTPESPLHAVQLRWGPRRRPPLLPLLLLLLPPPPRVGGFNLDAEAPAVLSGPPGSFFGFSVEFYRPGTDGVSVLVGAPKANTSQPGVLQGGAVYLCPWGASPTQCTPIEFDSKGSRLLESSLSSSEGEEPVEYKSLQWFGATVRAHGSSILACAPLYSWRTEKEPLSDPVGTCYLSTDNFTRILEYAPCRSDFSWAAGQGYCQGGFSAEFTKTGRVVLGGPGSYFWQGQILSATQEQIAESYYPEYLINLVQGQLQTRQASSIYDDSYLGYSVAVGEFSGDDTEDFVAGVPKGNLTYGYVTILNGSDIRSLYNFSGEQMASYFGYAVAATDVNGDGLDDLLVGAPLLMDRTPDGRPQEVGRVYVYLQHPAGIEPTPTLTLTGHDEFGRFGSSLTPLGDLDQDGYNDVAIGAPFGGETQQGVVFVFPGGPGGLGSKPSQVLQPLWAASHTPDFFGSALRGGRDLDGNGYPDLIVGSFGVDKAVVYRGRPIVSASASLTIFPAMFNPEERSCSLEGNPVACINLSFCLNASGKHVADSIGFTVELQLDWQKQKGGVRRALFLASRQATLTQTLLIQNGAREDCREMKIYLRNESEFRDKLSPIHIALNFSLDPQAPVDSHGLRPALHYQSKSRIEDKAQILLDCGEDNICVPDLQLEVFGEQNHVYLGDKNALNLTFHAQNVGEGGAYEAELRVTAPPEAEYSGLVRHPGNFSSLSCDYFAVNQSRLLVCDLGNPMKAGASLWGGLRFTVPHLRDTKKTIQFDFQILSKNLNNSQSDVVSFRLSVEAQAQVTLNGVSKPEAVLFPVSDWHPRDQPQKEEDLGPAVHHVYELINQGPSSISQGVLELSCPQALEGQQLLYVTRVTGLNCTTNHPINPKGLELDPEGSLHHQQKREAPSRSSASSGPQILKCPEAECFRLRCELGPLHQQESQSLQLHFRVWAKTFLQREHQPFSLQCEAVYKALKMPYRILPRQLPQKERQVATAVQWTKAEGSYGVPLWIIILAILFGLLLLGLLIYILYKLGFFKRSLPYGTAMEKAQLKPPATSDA
Flag-ITGA5: residues 42-1049 of P08648
ITGA5 extracellular domain (truncation mutant construct): residues 42-995 of P08648
UniProt Q86U44: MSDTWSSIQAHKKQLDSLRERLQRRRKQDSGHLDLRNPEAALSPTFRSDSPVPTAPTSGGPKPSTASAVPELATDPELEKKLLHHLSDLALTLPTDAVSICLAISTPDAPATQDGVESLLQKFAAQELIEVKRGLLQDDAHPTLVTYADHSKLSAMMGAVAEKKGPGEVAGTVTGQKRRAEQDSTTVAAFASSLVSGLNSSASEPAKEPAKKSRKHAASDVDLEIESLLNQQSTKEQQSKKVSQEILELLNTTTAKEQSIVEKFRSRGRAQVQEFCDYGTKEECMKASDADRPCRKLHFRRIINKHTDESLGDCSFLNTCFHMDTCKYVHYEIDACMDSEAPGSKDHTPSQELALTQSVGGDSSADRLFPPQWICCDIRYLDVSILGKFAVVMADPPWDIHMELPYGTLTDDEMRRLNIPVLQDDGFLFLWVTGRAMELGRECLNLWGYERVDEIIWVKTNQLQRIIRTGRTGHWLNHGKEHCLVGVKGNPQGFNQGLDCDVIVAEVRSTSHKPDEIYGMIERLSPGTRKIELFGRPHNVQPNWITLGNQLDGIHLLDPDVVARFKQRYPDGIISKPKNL

Assays:
[1] = biological target: SMAD3 (endogenous) (human (endogenous in MHCC97H)) (UniProt P84022); experiment: co-IP; endogenous SMAD3 and METTL3 in MHCC97H cells, with or without TGF-β for 12 h
Flag-SMAD3 = Flag-SMAD3 (UniProt P84022); experiment: co-IP; Flag-SMAD3 and HA-METTL3 in MHCC97H cells; with or without TGF-β for 12 h; with galunisertib for 12 h
[2] = biological target: ITGB1 extracellular domain (truncation mutant construct) (UniProt P05556); experiment: co-IP; HA-ITIH1 with Flag-ITGA5, Flag-ITGB1, their truncation constructs or the ITGB1 deletion mutant in 293T cells
[3] = biological target: ITGA5 extracellular domain (truncation mutant construct) (UniProt P08648); experiment: as above
[4] = biological target: ITGB1 mutant (ITGB1 M) with the deletion of amino acids 130–240 (UniProt P05556); experiment: as above
Flag-ITGA5 = Flag-ITGA5 (UniProt P08648); experiment: as above
Flag-ITGB1 [5] = biological target: Flag-ITGB1 (UniProt P05556); experiment: as above
Flag-ITGB1 [6] = biological target: Flag-ITGB1 (UniProt P05556); experiment: co-IP; IP of ITIH1+ITGB1 in 293T cells with FN1 added in a concentration gradient
Flag-ITGB1 [7] = biological target: Flag-ITGB1 (UniProt P05556); experiment: co-IP; IP of ITGB1+FN1 in 293T cells with r-ITIH1 added in a concentration gradient; purified r-ITIH1 as the competitor on ITGB1; only the binder purified

METTL3 (endogenous) (from UniProt Q86U44 1-580)
binding [1]: binds

HA-METTL3 (from UniProt Q86U44 1-580)
binding (Flag-SMAD3): binds

B1: HA-ITIH1 (protein, UniProt P19827 35-672)
chain: SKSSEKRQAVDTAVDGVFIRSLKVNCKVTSRFAHYVVTSQVVNTANEAREVAFDLEIPKTAFISDFAVTADGNAFIGDIKDKVTAWKQYRKAAISGENAGLVRASGRTMEQFTIHLTVNPQSKVTFQLTYEEVLKRNHMQYEIVIKVKPKQLVHHFEIDVDIFEPQGISKLDAQASFLPKELAAQTIKKSFSGKKGHVLFRPTVSQQQSCPTCSTSLLNGHFKVTYDVSRDKICDLLVANNHFAHFFAPQNLTNMNKNVVFVIDISGSMRGQKVKQTKEALLKILGDMQPGDYFDLVLFGTRVQSWKGSLVQASEANLQAAQDFVRGFSLDEATNLNGGLLRGIEILNQVQESLPELSNHASILIMLTDGDPTEGVTDRSQILKNVRNAIRGRFPLYNLGFGHNVDFNFLEVMSMENNGRAQRIYEDHDATQQLQGFYSQVAKPLLVDVDLQYPQDAVLALTQNHHKQYYEGSEIVVAGRIADNKQSSFKADVQAHGEGQEFSITCLVDEEEMKKLLRERGHMLENHVERLWAYLTIQELLAKRMKVDREERANLSSQALQMSLDYGFVTPLTSMSIRGMADQDGLKPTIDKPSEDSPPLEMLGPRRTFVLSALQPSPTHSSSNTQRLPDRVTGVDTD
binding [2]: binds
binding [3]: binds
binding [4]: no binding
binding (Flag-ITGA5): binds
binding (Flag-ITGB1 [5]): binds
binding (Flag-ITGB1 [6]): binds

B2: ITIH1-Fc recombinant protein (Fc fusion, UniProt P19827 35-672)
chain: SKSSEKRQAVDTAVDGVFIRSLKVNCKVTSRFAHYVVTSQVVNTANEAREVAFDLEIPKTAFISDFAVTADGNAFIGDIKDKVTAWKQYRKAAISGENAGLVRASGRTMEQFTIHLTVNPQSKVTFQLTYEEVLKRNHMQYEIVIKVKPKQLVHHFEIDVDIFEPQGISKLDAQASFLPKELAAQTIKKSFSGKKGHVLFRPTVSQQQSCPTCSTSLLNGHFKVTYDVSRDKICDLLVANNHFAHFFAPQNLTNMNKNVVFVIDISGSMRGQKVKQTKEALLKILGDMQPGDYFDLVLFGTRVQSWKGSLVQASEANLQAAQDFVRGFSLDEATNLNGGLLRGIEILNQVQESLPELSNHASILIMLTDGDPTEGVTDRSQILKNVRNAIRGRFPLYNLGFGHNVDFNFLEVMSMENNGRAQRIYEDHDATQQLQGFYSQVAKPLLVDVDLQYPQDAVLALTQNHHKQYYEGSEIVVAGRIADNKQSSFKADVQAHGEGQEFSITCLVDEEEMKKLLRERGHMLENHVERLWAYLTIQELLAKRMKVDREERANLSSQALQMSLDYGFVTPLTSMSIRGMADQDGLKPTIDKPSEDSPPLEMLGPRRTFVLSALQPSPTHSSSNTQRLPDRVTGVDTD
binding (Flag-ITGB1 [7]): binds
